B1: LINE1-mini (parent)
chain: GGCAGAGCUCAACACAGCGUGGCAAAGUGGCUGUGGCUAGACUGCC

Results on 167 variants are retold here after the RNAGym collection of RNA variant scans (doi:10.7554/elife.90254).

Read counts are not given, so values of variants with three or more changes are uncertain.

In the data set the parent is B1. Put plainly: self-cleavage, relative activity (ratio to wild type); higher = more cleavage; in vitro, sequencing; the parent is a self-cleaving ribozyme.
For U9G C10U G22U G27A U32A, the self-cleavage stood at 0.04.
Turning to U9G A11G C46A, the self-cleavage came out at 0.03.
As to U9G A16C G21C G36A, the self-cleavage was determined as 0.03.
Turning to U9G C10G G19A G27U G29C G40U C46A, the self-cleavage was determined as 0.
Next, U9G A12U C15U G22U A24G G27C U32C C37U: 0.02; U9G A24U U32C C37G: 0.17.
The value for U9G A26G U34A was 0.01.
On to U9G A14G U20A G30C, for which the self-cleavage is 0.12.
Consider U9G C13A G17U G21U C23A C31G, for which the self-cleavage amounted to 0.15.
For the variant U9G A26U G44C C46A, the self-cleavage is 0.03.
Regarding U9G C18A A24C, the self-cleavage was found to be 0.08.
On to U9G A11G G33U U34G, for which the self-cleavage is 0.02.
With U9G C10U A12C A24C U34A, the self-cleavage worked out at 0.01.
For the variant U9G C15U A26C, the self-cleavage came to 0.02.
On to U9C U20G A25C G33A U38A G44A, for which the self-cleavage was 0.
The value for U9G A14U A39G A41C was 0.03; that for U9G A26C U34C U38A was 0.04.
As to U9G C15U A16G G33U, the self-cleavage is 0.08.
As to U9G A14U C15U G30C A41G, the self-cleavage is 0.2.
In the case of U9C G29C G33C, the self-cleavage stood at 0.03.
For U9G A14G U20A, the self-cleavage was 0.03.
For the variant U9G C13A G36A, the self-cleavage stood at 1.44.
Next, U9G A26G C37U: 0.04.
On to U9G C15G G21A C23A G35U, for which the self-cleavage turned out to be 0.02.
For the variant U9G A11C G19U C23U G30A C31U U38G, the self-cleavage was 0.
U9G C10U A11C: the self-cleavage came to 0.06.
U9G C15U G22C U28G C37G: the self-cleavage was 0.03.
In the case of U9G A24U U34A A39U G40A, the self-cleavage was 0.
For the variant U9G C13A C18G C23G C42U, the self-cleavage worked out at 0.02.
Take U9C G27C G35A: the self-cleavage stood at 0.02.
Regarding U9G A16C U34G, the self-cleavage is 0.08.
On to U9C U38C G44C, for which the self-cleavage was found to be 0.02.
For U9G A14U C37G, the self-cleavage worked out at 0.24.
As for U9G C13A G22C A25U U28C, the self-cleavage came to 0.02.
The value for U9G A12C G22U C42G was 0.
As for U9G C13A C23U A26U G36C, the self-cleavage worked out at 0.02.
U9C U20A A26U A39U: the self-cleavage is 0.
For the variant U9C G29A G35C G36A G40U A41U C42G, the self-cleavage worked out at 0.02.
Consider U9G A11G C15A U38A, for which the self-cleavage turned out to be 0.02.
In the case of U9G C13U C46G, the self-cleavage was determined as 0.07.
Take U9C G33C U38A: the self-cleavage was 0.04.
On to U9C U38G G40A, for which the self-cleavage is 0.03.
On to U9C G33U C37U, for which the self-cleavage stood at 0.01.
As to U9G A16C U20C, the self-cleavage came to 0.
Take U9G A14C C18A G36C: the self-cleavage was determined as 0.02.
Take U9G A16C G36A: the self-cleavage stood at 0.04.
The value for U9C G29U C46A was 0.04; that for U9G C15U C31A was 0.03.
Consider U9G A16U U34C, for which the self-cleavage was 0.02.
The value for U9G A11G A26C was 0.01.
The value for U9C G40A C42U was 0.03; that for U9C U28C C42G was 0.04.
The value for U9C U28C C42A was 0.01.
Regarding U9C U38C C42A, the self-cleavage turned out to be 0.04.
With U9G A12U C13U A24U U28G U43A, the self-cleavage turned out to be 0.01.
Consider U9G C15G C31G, for which the self-cleavage was 0.07.
As to U9C G29U A41U C45U, the self-cleavage is 0.03.
As to U9G A26U U28C, the self-cleavage stood at 0.04.
Turning to U9G A11U G19C C23A U34G, the self-cleavage is 0.
Regarding U9G A16G U20C G44A, the self-cleavage was 0.03.
Take U9G A16U A24C U28C G30U: the self-cleavage turned out to be 0.01.
The value for U9C U34C G35C was 0.02; that for U9G A16G G27U U28G C45U was 0.09.
Consider U9G A12C G44A, for which the self-cleavage amounted to 0.39.
Turning to U9G C13U G17A G21U A26U G29A U32G U38G A39G, the self-cleavage was found to be 0.
As for U9G C10U U20A G21U C46U, the self-cleavage was 0.01.
Next, U9G A11U A26G: 0.01; U9G C13A A39G: 0.47.
Consider U9G A14C G19C, for which the self-cleavage amounted to 0.02.
Take U9G A16U U32G: the self-cleavage was determined as 0.06.
Take U9G C10U C31G A39U: the self-cleavage was determined as 0.02.
As for U9G A26U G40C, the self-cleavage came out at 0.01.
Next, U9G C10A G22A C23G: 0.01; U9G A25G G30C G35A A39C: 0.02; U9G C10G C31G U34A: 0.
In the case of U9G C10A A24U C37U U38G, the self-cleavage was found to be 0.
For U9G A16U C23A C37U, the self-cleavage is 0.01.
U9C U28G C37U: the self-cleavage came to 0.03.
Turning to U9G C15A G21A C31G, the self-cleavage came to 0.25.
Take U9G C10U G17A G30U: the self-cleavage was 0.03.
Consider U9C G35A C42A U43A, for which the self-cleavage amounted to 0.04.
The value for U9C U28G G35A was 0.03; that for U9G C10G A26G was 0.03; that for U9C U32G G44C was 0.
Next, U9G A12C G35U C46A: 0.
With U9G C10G U28A, the self-cleavage was found to be 0.01.
Next, U9G C10G U28G: 0; U9G A11G C18U A26C G27C G30U A39G A41U: 0.01.
Turning to U9G C10A C23U G27A, the self-cleavage worked out at 0.
Consider U9G C10A G21A G27U G44U C46A, for which the self-cleavage worked out at 0.02.
Turning to U9G A11U G22C, the self-cleavage is 0.02.
Next, U9G A25U U28C: 0.11.
Turning to U9G A14U U34A G35U, the self-cleavage came to 0.
The value for U9C G30C C46A was 0.03.
Consider U9G A11U C18U G21C U28A A41C, for which the self-cleavage came to 0.01.
Regarding U9G C15A C37G, the self-cleavage came to 0.07.
The value for U9G A24G C31G was 0.03; that for U9G A25C G40U C46G was 0.01; that for U9G C10A C15A U43A was 0.01.
Next, U9G C15U G17A G40C: 0.02.
U9C G30A G36U: the self-cleavage came out at 0.02.
Turning to U9C U34C C37A, the self-cleavage turned out to be 0.06.
Take U9G C10A C13U U20C G29A C31A: the self-cleavage is 0.02.
Take U9G C15A A26U A41G: the self-cleavage is 0.14.
Next, U9G C13A C31U: 0.1; U9G C13A A39U G40C: 0.04; U9C G36A U38A: 0.
Next, U9G A12G G17U U28G G40U: 0.03.
Next, U9G C15U G27C G33C C37A: 0.01.
In the case of U9G A12C C23U G36C, the self-cleavage turned out to be 0.01.
In the case of U9C G30A C31G G36U G40U C42A, the self-cleavage is 0.01.
As for U9G A12C G29A C31U, the self-cleavage worked out at 0.01.
On to U9G A16C C42G, for which the self-cleavage came out at 0.01.
The value for U9C U20A G40A was 0.01; that for U9G C10A G29A G30A G36U C42G was 0.
Regarding U9G C10U G33C C42A, the self-cleavage came out at 0.01.
For U9G C18A C42A, the self-cleavage came out at 0.02.
Consider U9G A14U G27C, for which the self-cleavage was 0.14.
Next, U9G A11C C13A G21U C37G: 0.01; U9G A12G A14U G21U: 0.01; U9G A16G G21U A26C U34A: 0.
For the variant U9G C10U A14G G27A G33U, the self-cleavage worked out at 0.01.
For U9C G29U U34G, the self-cleavage turned out to be 0.01.
Next, U9G A25U C42U: 0.07.
Regarding U9G A24U A26G G40A, the self-cleavage stood at 0.02.
As to U9G A25G C31U C45G, the self-cleavage was 0.02.
Turning to U9G A11G G21C U38A, the self-cleavage turned out to be 0.01.
In the case of U9G C13G A14U A26G, the self-cleavage was found to be 0.07.
In the case of U9C U20C C42A, the self-cleavage was determined as 0.03.
As for U9G A12C G22A, the self-cleavage amounted to 0.01.
Regarding U9C U38C G40A, the self-cleavage was determined as 0.01.
The value for U9G A24C C42U was 0.01; that for U9G C13U U34A was 0.09.
Regarding U9G A24U A25C U34C, the self-cleavage is 0.
With U9G C10U C18G U20C A24U G30C, the self-cleavage came to 0.15.
Next, U9G C13G C15G: 0.38; U9C U20G A26U A39G C45U: 0; U9G A14C C18G C37A: 0.16.
For the variant U9G C15G A26U, the self-cleavage came to 0.01.
Take U9G A26U G29U: the self-cleavage is 0.03.
On to U9C G27A U34C, for which the self-cleavage worked out at 0.02.
As to U9G A11U G30U G40U U43G, the self-cleavage worked out at 0.01.
The value for U9C U28G C42A was 0.02.
Next, U9G A11C U20A C31U: 0.01; U9G C13A A16C: 0.05; U9C G27A U32C G36A C42G G44A: 0.01.
U9G C10G G33U: the self-cleavage stood at 0.04.
For U9G A39U C45G, the self-cleavage came out at 0.02.
Take U9G C15A G35U: the self-cleavage came to 0.05.
U9G C13A A41C: the self-cleavage turned out to be 0.04.
Regarding U9G C13A G30A G40U, the self-cleavage came to 0.08.
On to U9G A25C U28C G30U, for which the self-cleavage is 0.01.
For the variant U9G A11C C13G G19A C37U A39U, the self-cleavage came out at 0.01.
Next, U9G C10U C42U: 0.14.
The value for U9C G40A U43C was 0.01.
For U9C U20G C23A, the self-cleavage came to 0.02.
U9G A16G G21U G36C C42U: the self-cleavage was found to be 0.01.
The value for U9G C10A U28G was 0.01.
Next, U9G A16U A24G C31A G35A C42G: 0.03.
For U9G A25C C31A C37U, the self-cleavage was found to be 0.07.
U9G C13U C15G A16G: the self-cleavage is 0.04.
Next, U9G A25U A26U U34C: 0.02; U9G A25G G27A U32G: 0.05; U9C G27C G33A: 0.02.
As for U9C G27A G35U, the self-cleavage turned out to be 0.07.
For U9G C18A A26C G36A A39G G44C, the self-cleavage was determined as 0.01.
The value for U9G C13A G33U C46A was 0.17.
